Some of the results follow.
Assays:
HSkMC = human skeletal muscle cells; experiment: cytotoxicity call (relative viability < 0.9); conditions: 10 µM
HepG2 = experiment: cytotoxicity call (relative viability < 0.9); conditions: 10 µM
S. aureus RN4220 = experiment: growth inhibition call (relative growth <= 0.2); conditions: 50 µM

COc1ccc(S(=O)(=O)Nc2ccc3c(c2)C(=O)N([C@@H](C)CO)C[C@H](C)[C@@H](CN(C)S(=O)(=O)c2cn(C)cn2)OCCCC[C@H](C)O3)cc1
inactive: cytotoxicity call (HSkMC) | cytotoxicity call (HepG2) | growth inhibition call (S. aureus RN4220)

Cc1noc(C)c1S(=O)(=O)N(C)C[C@@H]1Oc2ccc(NS(=O)(=O)c3ccc(Cl)cc3)cc2CC(=O)N([C@@H](C)CO)C[C@H]1C
inactive: cytotoxicity call (HSkMC) | cytotoxicity call (HepG2) | growth inhibition call (S. aureus RN4220)

CC(C)C#Cc1ccc2c(c1)O[C@@H](CN(C)S(=O)(=O)c1cn(C)cn1)[C@@H](C)CN([C@H](C)CO)S2(=O)=O
inactive: cytotoxicity call (HSkMC) | cytotoxicity call (HepG2) | growth inhibition call (S. aureus RN4220)

C[C@@H]1CCCCO[C@H](CN(C)Cc2ccncc2)[C@H](C)CN([C@H](C)CO)C(=O)c2cc(NC(=O)c3ccccc3)ccc2O1
inactive: cytotoxicity call (HSkMC) | cytotoxicity call (HepG2) | growth inhibition call (S. aureus RN4220)

CS(=O)(=O)N1C[C@@H](O)COC[C@H]2O[C@H](CC(=O)NCc3ccccc3)CC[C@@H]21
inactive: cytotoxicity call (HSkMC) | cytotoxicity call (HepG2) | growth inhibition call (S. aureus RN4220)

C[C@@H]1CCCCO[C@@H](CN(C)C(=O)NC2CCCCC2)[C@H](C)CN([C@@H](C)CO)C(=O)c2cc(NS(=O)(=O)c3ccc(Cl)cc3)ccc2O1
inactive: cytotoxicity call (HSkMC) | cytotoxicity call (HepG2) | growth inhibition call (S. aureus RN4220)

CCNC(=O)c1cc2c(c(-c3cccc(-c4cc5ccccc5o4)c3)n1)[C@@H](CCO)N(C(=O)NC(C)C)C2
inactive: cytotoxicity call (HSkMC) | cytotoxicity call (HepG2) | growth inhibition call (S. aureus RN4220)

COc1ccc(NC(=O)N(C)C[C@H]2OCCCC[C@H](C)Oc3ccc(NS(=O)(=O)c4ccc(Cl)cc4)cc3C(=O)N([C@@H](C)CO)C[C@H]2C)cc1
inactive: cytotoxicity call (HSkMC) | cytotoxicity call (HepG2) | growth inhibition call (S. aureus RN4220)

C/C=C/c1ccc2c(c1)O[C@@H](CN(C)S(=O)(=O)c1ccc(C)cc1)[C@@H](C)CN([C@@H](C)CO)S2(=O)=O
inactive: cytotoxicity call (HSkMC) | cytotoxicity call (HepG2) | growth inhibition call (S. aureus RN4220)

O=C(c1ccncc1)N1C[C@@H]2[C@H](c3ccccc31)[C@@H](CO)N2C(=O)CN1CCOCC1
inactive: cytotoxicity call (HSkMC) | cytotoxicity call (HepG2) | growth inhibition call (S. aureus RN4220)

Cc1ccc(S(=O)(=O)N2C[C@H](O)COC[C@H]3O[C@@H](CC(=O)N[C@@H]4CCN(Cc5ccccc5)C4)CC[C@@H]32)cc1
inactive: cytotoxicity call (HSkMC) | cytotoxicity call (HepG2) | growth inhibition call (S. aureus RN4220)

CCCN1C[C@H](C)[C@H](OC)CN(C)C(=O)c2ccc(NS(=O)(=O)c3cn(C)cn3)cc2OC[C@@H]1C
inactive: cytotoxicity call (HSkMC) | cytotoxicity call (HepG2) | growth inhibition call (S. aureus RN4220)

C[C@H](O)C1=C[C@]2(CC[C@@H]3C(C(=O)O)=CO[C@@H](O[C@@H]4O[C@H](CO)[C@@H](O)[C@H](O)[C@H]4O)[C@@H]32)OC1=O
inactive: cytotoxicity call (HSkMC) | cytotoxicity call (HepG2) | growth inhibition call (S. aureus RN4220)

CCCN(C)C[C@H]1OCCCC[C@@H](C)Oc2ccc(NS(=O)(=O)c3ccc(Cl)cc3)cc2C(=O)N([C@H](C)CO)C[C@@H]1C
inactive: cytotoxicity call (HSkMC) | cytotoxicity call (HepG2) | growth inhibition call (S. aureus RN4220)

Cc1ccc(S(=O)(=O)N(C)C[C@H]2OCCCC[C@H](C)Oc3ccc(NC(=O)Nc4ccc5c(c4)OCO5)cc3C(=O)N([C@H](C)CO)C[C@@H]2C)cc1
inactive: cytotoxicity call (HSkMC) | cytotoxicity call (HepG2) | growth inhibition call (S. aureus RN4220)

CN(C)CCCNC(=O)C[C@H]1CC[C@@H]2[C@H](COC[C@@H](O)CN2S(=O)(=O)c2ccc(F)cc2)O1
inactive: cytotoxicity call (HSkMC) | cytotoxicity call (HepG2) | growth inhibition call (S. aureus RN4220)

C[C@@H]1CN([C@@H](C)CO)C(=O)c2cc(NC(=O)Nc3ccc4c(c3)OCO4)ccc2O[C@@H](C)CCCCO[C@@H]1CN(C)C(=O)NC1CCCCC1
inactive: cytotoxicity call (HSkMC) | cytotoxicity call (HepG2) | growth inhibition call (S. aureus RN4220)

O=C(CCCCCNC(=O)OCc1ccc(CO[C@H]2C[C@@H](c3ccccc3)C=C(C(=O)N3CCN(Cc4ccccc4)CC3)O2)cc1)NO
inactive: cytotoxicity call (HSkMC) | cytotoxicity call (HepG2) | growth inhibition call (S. aureus RN4220)

Cc1cc(C(=O)Nc2cccc3c2O[C@H](CN(C)S(=O)(=O)c2cccs2)[C@H](C)CN([C@@H](C)CO)C3=O)n(C)n1
inactive: cytotoxicity call (HSkMC) | cytotoxicity call (HepG2) | growth inhibition call (S. aureus RN4220)

O=C(C[C@H]1CC[C@H](NC(=O)c2ccc(F)cc2)[C@@H](CO)O1)NCc1ccncn1
inactive: cytotoxicity call (HSkMC) | cytotoxicity call (HepG2) | growth inhibition call (S. aureus RN4220)

C[C@@H]1CN([C@@H](C)CO)C(=O)c2cccc(NC(=O)Nc3ccc(F)cc3)c2O[C@@H]1CN(C)Cc1ccc(C(F)(F)F)cc1
inactive: cytotoxicity call (HSkMC) | cytotoxicity call (HepG2) | growth inhibition call (S. aureus RN4220)

C[C@H]1CN([C@@H](C)CO)C(=O)c2cc(NC(=O)Nc3cccc4ccccc34)ccc2O[C@@H]1CN(C)Cc1ccc(C(F)(F)F)cc1
inactive: cytotoxicity call (HSkMC) | cytotoxicity call (HepG2) | growth inhibition call (S. aureus RN4220)

C[C@H]1CN([C@@H](C)CO)C(=O)c2cc(NC(=O)CCC(F)(F)F)ccc2O[C@@H]1CN(C)S(C)(=O)=O
inactive: cytotoxicity call (HSkMC) | cytotoxicity call (HepG2) | growth inhibition call (S. aureus RN4220)

Cc1ccc(S(=O)(=O)N(C)C[C@@H]2Oc3c(NS(=O)(=O)c4ccccc4)cccc3C(=O)N([C@H](C)CO)C[C@H]2C)cc1
inactive: cytotoxicity call (HSkMC) | cytotoxicity call (HepG2) | growth inhibition call (S. aureus RN4220)

C[C@H]1CN([C@@H](C)CO)C(=O)c2cc(C#Cc3ccccc3F)cnc2O[C@@H]1CN(C)C(=O)Cc1cccnc1
inactive: cytotoxicity call (HSkMC) | cytotoxicity call (HepG2) | growth inhibition call (S. aureus RN4220)

Cc1n[nH]c(=O)nc1NCCN(C)C
inactive: cytotoxicity call (HSkMC) | cytotoxicity call (HepG2) | growth inhibition call (S. aureus RN4220)

— the antibiotic and cytotoxicity screens of Wong et al. (2023)
